Data taken from US20240392031A1 (BICARA THERAPEUTICS, published 2024).

Target: human IL-12 receptor (hIL-12R), heterodimer of hIL-12Rβ1 and hIL-12Rβ2 (human, UniProt P42701 24-662; Q99665 24-862)
Experiment: cell-based or functional assay

B1: BCA313 (Fc-IL-12), non-targeting Fc-attenuated IL-12 fusion protein (hIL-12p40 E81K, K121E, K286E) (Fc fusion)
chain 1: [human IgG1 Fc with changes left out here]GGGGSGGGGSGGGGSIWELKKDVYVVELDWYPDAPGEMVVLTCDTPEEDGITWTLDQSSEVLGSGKTLTIQVKKFGDAGQYTCHKGGEVLSHSLLLLHKKEDGIWSTDILKDQEEPKNKTFLRCEAKNYSGRFTCWWLTTISTDLTFSVKSSRGSSDPQGVTCGAATLSAERVRGDNKEYEYSVECQEDSACPAAEESLPIEVMVDAVHKLKYENYTSSFFIRDIIKPDPPKNLQLKPLKNSRQVEVSWEYPDTWSTPHSYFSLTFCVQVQGKSKREKEDRVFTDKTSATVICRKNASISVRAQDRYYSSSWSEWASVPCS
chain 2: [human IgG1 Fc with changes left out here]GGGGSGGGGSGGGGSRNLPVATPDPGMFPCLHHSQNLLRAVSNMLQKARQTLEFYPCTSEEIDHEDITKDKTSTVEACLPLELTKNESCLNSRETSFITNGSCLASRKTSFMMALCLSSIYEDLKMYQVEFKTMNAKLLMDPKRQIFLDQNMLAVIDELMQALNFNSETVPQKSSLEEPDFYKTKIKLCILLHAFRIRAVTIDRVMSYLNAS
HEK IL-12 Reporter Assay (Ratio of EC50): 5000 ratio | PSTAT (CD8) flow cytometry - percent reduction at 16.9 nM: 82.5%
